# Experimental data published in the supplement of paper PMC11417369.
# ± gives the standard deviation of the averaged measurements. This is one part of the list.
# Test system: PfAP2-I AP2 domain 3 (GST-tagged)
# Experiment: gcPBM binding intensity (ln(normalized median fluorescence intensity)); higher = stronger DNA binding
# How it was run: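 GST-tagged P. falciparum DNA-binding domains produced in E. coli were incubated for 1 h on an Agilent 4 × 180k array of primer-extended double-stranded 36-bp intergenic genomic probes with negative controls. Binding intensity is the highest Masliner-normalised natural-log median intensity across replicate spots of either probe orientation, with bound protein detected by Alexa488 anti-GST antibody at 488 nm.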
row,Sequence,gcPBM binding intensity (ln)
1,ATATTAACTTTTATTACACACTCTCAACTTTTATTT [CACACA_site6176],8.19 ± 0.68
2,TCACAAATGTATTATACACACAAGTTTTCTTTAATA [CACACA_site4107],7.83 ± 0.42
3,AATAAAAATAACCTAACATGCAAAAAAAAAAAAAAA [TGCATGCA_site718],8.01 ± 0.69
4,TGAATGCTTTTATGCACACGTACAAAAATATTATAT [CACACA_site2668],9.8 ± 0.42
5,GTCATTAAAAAAATATGTACTTAAATGTATGCATAT [XGTACX_site5951],7.79 ± 0.44
6,TATATATTATATATATGTACTTATTTATTAATTTAT [XGTACX_site5253],7.54 ± 0.24
7,TGTTGTTATAAAAAAAAAAAAAAAAAAAAAAAAAAA [GTGCAC_negctrl_site230],8.16 ± 0.67
8,TGTGGTTTTTATAATTGTACATATATATAAATCTAT [XGTACX_site4766],7.87 ± 0.21
9,ATATAAAATAAATAAGTGCAGATAAATTTATGTGAC [GTGCAC_site9504],9.46 ± 0.13
10,GGAATATAAATACATACACACATATATATATATATA [CACACA_site4998],9.24 ± 0.51
11,TATAATAAATCAAATGCACACACACTAATAAAAAAA [CACACA_site7937],9.15 ± 0.11
12,ATGAATATTTACAATCTTATTATGTTCAAAATTAAT [CACACA_negctrl_site592],7.48 ± 0.57
13,TACATGCTTATTTTAACACACAAATGGTAGTAATAA [CACACA_site766],7.71 ± 0.64
14,TGACGACATTTCTTATGTACTAATTTTTCTTCCTTT [XGTACX_site4391],7.63 ± 0.64
15,TAAAAAAAGAAAAAAAGTACATGCTACTTTTATGAT [XGTACX_site7818],7.85 ± 0.48
16,CAAAATGATATGACAACACACAACCTATAGTAAGAC [CACACA_site1287],8.07 ± 0.79
17,TAATATATAATAAAGTGTACATATGCTTTATTATTA [XGTACX_site1920],7.75 ± 0.23
18,ATAATTATTAATATAGTGCATTGGCATAATAATATA [GTGCAC_site9810],9.89 ± 0.2
19,TTATACAACAAGAAAATTATAAAATGTAACATATAT [GTGCAC_negctrl_site406],7.53 ± 0.76
20,ATATTAATATAATGTGCATGTTCAATGATCTTTTTA [TGCATGCA_site22],8.02 ± 0.93
21,TTAGATATAATATATACACACCAACGAACGAAGAAA [CACACA_site4763],8.05 ± 0.55
22,TATTTTTTAACACAACGTACATATAAAAAATATTTA [XGTACX_site6025],8.09 ± 0.31

row,Sequence,gcPBM binding intensity (ln)
1,TACAAATATATATGCACACACATATATGTATATGTG [CACACA_site3075],9.44 ± 0.25
2,AGTAAATAACACAAATATGAATGAAAAAAAAAATAT [GTGCAC_negctrl_site235],7.89 ± 0.79
3,ATATATATATAGTACGCACACATAGTTGTACATTAA [CACACA_site2787],9.21 ± 0.13
4,CGTATGAGTAAATACACACCCACGTATATATATAAA [CACACA_site5728],7.78 ± 0.44
5,CAACTTATTAAAAGTCGTACAAATGGGAAGAAGGAA [XGTACX_site6325],8.18 ± 0.64
6,TGTGCGGAAATAAGTGCACACATAGATATCTGTATT [CACACA_site5935],10.6 ± 0.57
7,GAGTAAAAATTAAAATGTACATATTATATATATTTA [XGTACX_site1319],7.64 ± 0.3
8,AAATCCTTATTTTTTTGTACGTAATATTTTATATGG [XGTACX_site1530],7.95 ± 0.38
9,ATGAATGTCCCAAGATGTACAATTATATATAACACA [XGTACX_site4702],7.82 ± 0.4
10,TTTTAAGATATAAATTAATACTTATATATATAGATA [CACACA_negctrl_site22],7.24 ± 0.42
11,TAATAAATAAGACACACACACATATATATATATTAT [CACACA_site1389],7.92 ± 0.35
12,CCTTTCACATATAATACATGCATTATTATATATGAA [TGCATGCA_site287],8.28 ± 0.57
13,AGAATAATATAATAAAGTACAAACCTATCTAACTAC [XGTACX_site5477],7.87 ± 0.47
14,ATTATAAATAAATATTGTACTTATATGATCTATTTG [XGTACX_site3820],7.42 ± 0.38
15,ATTGCATTTGTAGATAATACAATATGGATTGTTATA [CACACA_negctrl_site1749],7.42 ± 0.64
16,GGATATATTATATGTACACACACATATAAGGGATTA [CACACA_site7884],7.87 ± 0.3
17,AAAAATTTTATATTCACACACATATTTATATTTATA [CACACA_site6439],7.71 ± 0.69
18,ATATATAAAAAAGCTAGTACACAAAAATATATAATG [XGTACX_site3001],8.1 ± 0.75
19,AAAAAAATTTATTAAAGTACTAGATAATCATATAAA [XGTACX_site1455],7.63 ± 0.61
20,TTCTTTTCTCTTTTAATCATATTATATAAATGAATA [CACACA_negctrl_site820],7.64 ± 0.67
21,CTTTTCTTTTTTTTTTGTACATAAAATTATTCCTTA [XGTACX_site3924],7.84 ± 0.49
22,AATATAGTCACACATACACACATATAGATTTATATA [CACACA_site7223],7.99 ± 0.55

row,Sequence,gcPBM binding intensity (ln)
1,TTTTGTTGCTCTTTTTTTTTTTTTTTTAACTGTATG [CACACA_negctrl_site1072],7.71 ± 0.73
2,AACCAATATGTGTATACACACATAAATATAAATATA [CACACA_site7729],7.83 ± 0.35
3,AAAAAAAAAAAAAGGTGTACATAAGTAAATTCATAT [XGTACX_site4206],8.23 ± 0.28
4,TATACATATAAATTGTGTACACATATATATATATTT [XGTACX_site7875],8.13 ± 0.18
5,TAAAAGGAAAAAAAAGCACACACAATATTACTTGAA [CACACA_site8831],7.75 ± 0.73
6,TATCAAAATTAGTATACACACAAAATTATTCAAATA [CACACA_site2232],7.47 ± 0.38
7,AATATATAAATTAATACATGCACATATAGAAAGGGA [TGCATGCA_site472],8.7 ± 0.52
8,CTTTTTACTTAATACACACACACACTAGAAAAAAAA [CACACA_site4680],8.35 ± 0.27
9,AAAAGATTGCTCCGCATGCACCTCCAAAAGTTCCTT [GTGCAC_site9993],8.62 ± 0.36
10,TACAAAAGCGATACGGCACACATTTCCTGTTTAAAT [CACACA_site2746],8.935 ± 0.078
11,TTTGCTTCCAAAAGTCGTACAAAAAATATTAAATAT [XGTACX_site4171],7.88 ± 0.19
12,ACAGAATACATATACACACATACAAAAAAGTGCATA [CACACA_site987],8.44 ± 0.38
13,TCATACTGTATATTTTGTACTTATATATATATTATA [XGTACX_site6136],7.87 ± 0.53
14,CATTATGTTGTAAATGCACACATACATATACACAGT [CACACA_site8990],9.63 ± 0.028
15,ATAATAAGCAAACACACACACACAAAAAAAAAAAAA [CACACA_site720],8.09 ± 0.77
16,TTATTTTGTTTTAAAAGTACACACTTTTAATTAGAT [XGTACX_site2271],8.05 ± 0.19
17,TATATAAACACGTACACACACATATAGGTATTTATA [CACACA_site7615],8.09 ± 0.31
18,TCTTAATTTGTTATATGTACATAATATAATTGTATA [XGTACX_site5184],7.79 ± 0.32
19,TATTTTGTAATAATTACACACGGAATTATAACAGAA [CACACA_site2355],7.99 ± 0.5
20,ATATATATATTTATATTTATATGTAAATATCAACGT [TGCATGCA_negctrl_site32],8.8
21,TTATATTAATAAAAAGAAAATCATTTTTTCTTTTAT [CACACA_negctrl_site1595],7.17 ± 0.51
22,AATATTATGTATAACCGTACATTATATATATAATAA [XGTACX_site1594],7.46 ± 0.46

row,Sequence,gcPBM binding intensity (ln)
1,ATTGTGTTAATGAAATGTACATTTTCTCTACGTTAA [XGTACX_site1322],7.82 ± 0.69
2,TCCTACATATTATAGTGTACATTTTCATGTTCATAT [XGTACX_site4308],7.92 ± 0.63
3,AAGTATTATATATTTTGTACATATATAAAACCACAA [XGTACX_site5508],7.75 ± 0.39
4,TTAAACTTGTTTTGGATGCACTATATAATTCATTTT [GTGCAC_site9549],9.45 ± 0.15
5,ATTAAAATAATTTAATTTCTTAGACACAATTTGTAA [GTGCAC_negctrl_site331],7.33 ± 0.31
6,GTGTAAAGGTATTATTGTATTATTCAAAATAAAAAA [CACACA_negctrl_site637],7.93 ± 0.33
7,TATTTATATTTATATACACACATACATATTTATATT [CACACA_site6535],7.68 ± 0.58
8,AAACAAAAAATTTAAAGTACAAAAATTATGATTGTT [XGTACX_site465],7.58 ± 0.39
9,AAAAAATTAATATTGACACACATTTTTAAGAATAAT [CACACA_site239],7.58 ± 0.48
10,AATATGTCTATATTTTTTATATGGAAATATTATAAA [GTGCAC_negctrl_site700],7.43 ± 0.35
11,CAAAAGGATAGGCACACACACACACCCATATATATA [CACACA_site2199],8.36 ± 0.67
12,TTTTTTTTTTTTTTTTTTTTTTTATCTATTATTTAT [XGTACX_negctrl_site496],8.05 ± 0.79
13,AATACTATTATTATTGCACACTTATTATCCCTCGGA [CACACA_site4262],10.6 ± 0.38
14,TATCCATTTCTTTATGTGCACATTAAATATATTTGT,10.2 ± 0.4
15,TATAAAAATATTTCTACACACATTAATATATATATA [CACACA_site1150],8.97 ± 0.042
16,AATATATAGAGAGATATGCACACTGTATGAATGCAC [CACACA_site2677],10.7 ± 0.54
17,TATATTAATAATAAGTGTACATATATATATATTTTT [XGTACX_site288],7.84 ± 0.47
18,AATGAGAAATATAATTGTACATATATTTATTTTCAT [XGTACX_site3669],7.63 ± 0.35
19,ATTTGTAAAAAATTCATACACACGTCTTATTTTTAA [CACACA_site1390],7.59 ± 0.66
20,TATTTTTTCTTTCATTGTACTTTTTTTTTGTTTTGT [XGTACX_site4081],7.75 ± 0.68
21,ACCCAGTGTATTCATAGTACACGCTCATATATTATC [XGTACX_site423],8.11 ± 0.54
22,AGGTTTATAAAAAAAAAAAAAAAAAAAAAAAAAAAA [GTGCAC_negctrl_site113],8.21 ± 0.79
